Results: PubChem BioAssay AID1346428 (National Center for Advancing Translational Sciences (NCATS), 2018)
About 1,200 (2.5%) of roughly 48,000 compounds were called active. Roughly 2% stayed inconclusive and do not appear here.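 Rule for the calls: active = activation of at least 60% and not above a set upper limit (about 1 call in 100 departs from these limits); inconclusive = activation of 40% to 60%, or above that upper limit; inactive = activation under 40%.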 Some of the results follow.
Note: 0% is about no effect.

What follows are compounds tested against Probable G-protein coupled receptor 32 (Homo sapiens) (UniProt O75388) (assay: qHTS for Agonists of Human Resolvin D1 Receptor DRV1). Conditions: CHO-K1 GPR32 beta-arrestin PathHunter luminescence, 90 min; at 76.9 µM; active compounds read high; zero percent set by DMSO-only wells.
Chain of UniProt O75388 (O75388 whole entry, looked up, the tested form may be a part): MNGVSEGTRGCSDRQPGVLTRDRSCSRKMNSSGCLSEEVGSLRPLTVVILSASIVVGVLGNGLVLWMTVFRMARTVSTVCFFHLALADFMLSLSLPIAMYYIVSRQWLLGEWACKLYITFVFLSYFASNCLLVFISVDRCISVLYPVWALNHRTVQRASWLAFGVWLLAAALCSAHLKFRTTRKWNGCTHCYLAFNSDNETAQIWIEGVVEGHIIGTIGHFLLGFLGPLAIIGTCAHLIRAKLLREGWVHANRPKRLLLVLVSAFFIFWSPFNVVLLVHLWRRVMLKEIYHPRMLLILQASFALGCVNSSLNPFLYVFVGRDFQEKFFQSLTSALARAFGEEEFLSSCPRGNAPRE
In short: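 Agonism was scored as beta-arrestin recruitment to ProLink-fused GPR32 in stably transfected CHO-K1 cells, giving a chemiluminescent beta-Gal signal; compounds were incubated 90 min at 37 °C.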
`COc1ccc(-c2cc(-c3ccc4c(c3)NC(=O)CO4)nc3c2COc2ccc(F)cc2-3)cc1` was tested, and the activation was inactive: 17.1%.
In the case of `CCOc1ccc(N2C(=O)c3n[nH]c(-c4cccs4)c3C2c2cccc(F)c2)cc1` (centres undefined), the activation is reported as inactive: 41.6%.
With `CCc1nonc1NC(=O)c1oc2ccc(C)cc2c1C` the activation was inactive: 2.59%.
With `CN(C)c1ccc(-c2nc(-c3ccco3)no2)cc1[N+](=O)[O-]` the activation was inactive: -26.5%.
For `CCc1ccc(NC(=O)c2ccc(F)c(S(=O)(=O)NCc3ccc(Cl)c(Cl)c3)c2)cc1`, the activation was inactive: 20.4%.
In the case of `Cc1ccc(Cl)cc1-n1ncc2c(NCCCc3ccccc3)ncnc21`, the activation is reported as active: 78.4%.
With `Cc1c(Nc2nc3ccccc3n3c(C)nnc23)cccc1C(=O)O` the activation was inactive: -3.76%.
In the case of `CCOc1ccccc1CNC(=O)c1ccc2c(c1)nc1n2CCCCC1`, the activation is reported as inactive: -9.67%.
For `CCN(CC)S(=O)(=O)c1ccc2c(c1)N(CC(=O)N1CCN(c3cccc(OC)c3)CC1)C(=O)CO2`, the activation was inactive: -19.6%.
In the case of `Fc1ccc(-n2ncc3c(N4CCCCCC4)ncnc32)cc1`, the activation is reported as inactive: 23.5%.
In the case of `Cc1ccc(NC(=O)N2CC3CCCN3c3ccccc32)c(C)c1` (centres undefined), the activation is reported as inactive: 6.47%.
For `COc1ccc(NC(=O)c2ccco2)cc1NC(=O)COc1ccc(Cl)c(C)c1`, the activation was inactive: 34.6%.
With `Cc1ccc(-c2cc(C(=O)N(Cc3ccc(C(C)(C)C)cc3)Cc3ccco3)no2)cc1` the activation was inactive: -9.69%.
In the case of `CCc1cccc(C)c1NC(=O)CCn1c(=O)c2cccn2c2ccccc21`, the activation is reported as inactive: -17.5%.
With `CC(C)C(=O)NCC1(N(C)C)CCCCC1` the activation was inactive: 5.55%.
With `Cc1cc(N2CCN(c3cccc(C(F)(F)F)c3)CC2)n2nc(-c3ccccc3)nc2n1` the activation was inactive: -14.2%.
For `CCOc1ccc(C(=O)Nc2c(C(=O)N3CCN(c4ccccc4F)CC3)oc3ccccc23)cc1`, the activation was inactive: 6.06%.
For `Cc1ccc(NS(=O)(=O)c2cc3[nH]c(=O)c(=O)[nH]c3cc2C)cc1Cl`, the activation was inactive: -7.63%.
In the case of `CCCn1c(=N)n(CC(O)COc2ccccc2OC)c2ccccc21` (centres undefined), the activation is reported as inactive: -5.52%.
In the case of `Cc1ccc(N2CC(NC(=O)CCc3ccccc3)CC2=O)cc1C` (centres undefined), the activation is reported as inactive: -11.1%.
With `Cc1cccc(CCNC(=O)c2ccc(CSCc3cccc(Cl)c3)o2)c1` the activation was inactive: -25.2%.
In the case of `Cc1cccc(N(Cc2cc3ccccc3[nH]c2=O)C(=O)c2cccc(Cl)c2)c1`, the activation is reported as inactive: -21.7%.
`Cc1ccc(S(=O)(=O)c2[nH]c(-c3ccccc3)nc2SCCC(=O)O)cc1` was tested, and the activation was inactive: 15.8%.
With `CCOc1ccc(NC(=O)c2c(Nc3ccccc3C)sc(C(=O)c3ccc(Cl)cc3)c2N)cc1` the activation was inactive: -80.4%.
